# PubChem BioAssay AID1963576 (National Center for Advancing Translational Sciences (NCATS), 2024)
# Among all 46,000 compounds or so, about 60 (0.1%) were called active. Another 3% or so got no clear call; they are omitted. The call rests on the fitted dose curve; in most records, active means well fitted inhibition curve with a large enough effect; inconclusive means small, poorly fitted or top-dose-only effect; inactive means no such curve, though single readings can be large or run the other way. The list shows a part of the results.
# Test: Primary qHTS assay for Inhibitors of ovarian cancer metastasis using an organotypic tumor microenvironment (TME) model. Further: nearly all actives have a fitted effect of over 65% in size.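 On Potency: count of GFP cancer cells still attached after washing and fixation.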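 On activity change, negative = inhibition: plate controls were DMSO wells for no effect and tomatine positive control wells for full effect.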
# Conditions: SKOV3ip1-GFP adhesion/invasion on 3D omental model, fluorescence; series mostly up to 45.8 µM; activity change, negative = inhibition: at the top concentration
# In short: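 Primary human omental fibroblast/mesothelial 3D culture pre-formed 48 h. SKOV3ip1-GFP cells added with compounds (0.36-46 umol/L), incubated 2 h RT/16 h 37 C, fixed; GFP cells quantified at 488/509 nm.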
# Potency means the concentration at half of the fitted maximal effect.
Structure (SMILES),"activity change, negative = inhibition",outcome,Potency
CC1CCc2nc(NC(=O)COc3ccc(C(C)(C)C)cc3)sc2C1 (centres undefined),inactive: 1.04%,–,–
CCOC(=O)c1ncn2c1CN(C)C(=O)c1cc(F)ccc1-2,–,inactive,–
O=S(=O)(Nc1cccc(-c2ccc(N3CCCCC3)nn2)c1)c1cccs1,inactive: 11.7%,–,–
O=NN(CCCl)C(=O)NCCCl,inactive: -10.1%,–,–
O=C(Cc1ccc(NC(=O)N2CCSc3ncccc32)cc1)NCc1ccccc1Cl,inactive: -15.5%,–,–
CCOc1ccc(S(=O)(=O)Nc2ccc3oc(C)c(C(=O)OCCOC)c3c2)cc1,inactive: -9.58%,–,–
Cc1csc2nc(COC(=O)COc3ccccc3F)cc(=O)n12,inactive: -1.34%,–,–
CCCC(=O)N1CC(=O)Nc2ccc(Cl)cc2C1c1ccc(F)cc1 (centres undefined),inactive: 2.06%,–,–
CC(=O)c1cccc(NC(=O)CCS(=O)(=O)c2cc(Br)cc3c2N(C(=O)C2CC2)CC3)c1,inactive: -4.66%,–,–
CCCn1c(=O)c2sccc2n2c(CCCC(=O)N3CCN(c4ccccc4)CC3)nnc12,–,inactive,–
COc1ccc(CCNC(=O)Cn2nnc(-c3ccc(C(F)(F)F)cc3)n2)cc1OC,inactive: -1.91%,–,–
Cn1c(C(=O)NCc2ccc(F)cc2)cc2c(=O)n(C)c3ccccc3c21,inactive: 0.132%,–,–
CCS(=O)(=O)c1ncc(N(Cc2ccco2)Cc2sccc2C)c(C(=O)Nc2cc(C)ccc2C)n1,inactive: -6.69%,–,–
C[C@@H](N)C1CCC(C(=O)Nc2ccncc2)CC1 (some centres undefined),inactive: 19.3%,–,–
Cc1ccccc1NS(=O)(=O)c1ccc2[nH]cc(C(=O)N3CCCC3)c(=O)c2c1,inactive: -0.457%,–,–
Cc1nc2ccn(Cc3cccnc3)c(=O)c2cc1C(=O)Nc1ccc(OC(F)(F)F)cc1,inactive: 8.7%,–,–
COCCn1c(SCC(=O)Nc2ccc(F)c(Cl)c2)nc2c(oc3ccccc32)c1=O,–,inactive,–
Cc1ccc(Cl)cc1NC(=O)Cn1c(=O)c(CNc2ccccc2)cc2cc3c(cc21)OCCO3,inactive: 3.93%,–,–
O=C(Nc1ccccc1C(=O)OCc1cc(=O)n2nc(C3CC3)sc2n1)c1cccc(Cl)c1,inactive: 1.98%,–,–
Cc1sc2ncn(CC(=O)Nc3cccc(C(F)(F)F)c3)c(=O)c2c1S(=O)(=O)N1CCC(C)CC1,inactive: 4.63%,–,–
CCOC(=O)C1=C(CN2CCN(c3ccccc3)CC2)NC(=O)NC1c1ccc(C)cc1 (centres undefined),–,inactive,–
Cc1c(C(=O)Nc2ccccc2Br)oc2ccc(S(=O)(=O)N3CCCCC3)cc12,inactive: 7.36%,–,–
CCN(c1cccc(C)c1)S(=O)(=O)c1nnc(NC(=O)c2cccs2)s1,–,inactive,–
COc1ccc(-c2c(C)nn3c4c(cnc23)C(=O)CC(c2ccc(C)cc2)C4)cc1 (centres undefined),–,inactive,–

Structure (SMILES),"activity change, negative = inhibition",outcome,Potency
COc1ccc(C(=O)Nc2cc(C(F)(F)F)ccc2N2CCN(c3ccccc3)CC2)cc1OC,–,inactive,–
Cc1cccc(Cn2c(CN3CCC(C(=O)NCCc4ccccc4)CC3)cc3ccccc32)c1,inactive: 0.737%,–,–
CCCCn1c(-c2ccc(S(=O)(=O)N3CCOCC3)cc2)csc1=Nc1ccccc1,inactive: -0.438%,–,–
CCOc1ccccc1NC(=O)c1cccc2c1C(=O)N(C1CCCCC1)C2,inactive: -1.54%,–,–
COc1cccc(NC(=O)Cn2c(=O)n(-c3ccc(CC(=O)NCC4CCCO4)cc3)c(=O)c3ccccc32)c1 (centres undefined),inactive: 12.9%,–,–
CCC(=O)Nc1nnc(S(=O)(=O)N(C)Cc2ccccc2)s1,–,inactive,–
CCOc1ccc(C(=O)OCc2cc(=O)n3nc(C4CCCCC4)sc3n2)cc1,inactive: 0.319%,–,–
CSc1ncc(Cl)c(C(=O)N(Cc2ccccc2Cl)C2CCS(=O)(=O)C2)n1 (centres undefined),–,inactive,–
Cc1ccc2nc(NC(=O)c3cc(=O)c4cc(C)c(C)cc4o3)sc2c1,inactive: 13.3%,–,–
CCOc1ccccc1C1C(C(=O)Nc2ccccc2OC)=C(C)Nc2nc3ccccc3n21 (centres undefined),–,inactive,–
CCOc1ccc(NC(=O)Cc2csc(COc3cccc(C)c3)n2)cc1,inactive: -7.18%,–,–
CCCN1C(=O)C(NC(=O)c2ccccc2OC)(C(F)(F)F)C(C(=O)OC)=C1C (centres undefined),inactive: 8.9%,–,–
Cc1ccc(C)c(NC(=O)CSc2cn(CC(=O)N3CCCC3)c3ccccc23)c1,–,inactive,–
COc1ccccc1CNC(=O)c1ccc(C)c(-n2cnc3cccnc32)c1,inactive: 20.6%,–,–
O=C(NCCc1csc(-c2cccnc2)n1)c1cccc(C(F)(F)F)c1,–,inactive,–
CCOc1ccc(NC(=O)Cn2c(C)ccc(C#N)c2=O)cc1,inactive: -7.42%,–,–
CCc1nnc2c3ccccc3nc(N3CCN(c4ccc(C)cc4C)CC3)n12,inactive: 5.03%,–,–
CSc1ccc(CNC(=O)CCn2ccc3cc(S(=O)(=O)N4CCCC4)ccc32)cc1,inactive: 0.475%,–,–
COc1ccc(NS(=O)(=O)c2nnc(NC(=O)c3ccccc3F)s2)cc1,–,inactive,–
CCOC(=O)N1CCc2c(sc3c2c(=O)n(-c2ccc(Cl)cc2)c(=O)n3CC(=O)c2ccc(F)cc2)C1,–,inactive,–
COc1ccccc1NC(=O)CSc1nc2c(oc3ccccc32)c(=O)n1-c1ccc(C)cc1,–,inactive,–
COc1ccc(CN2C(=O)C(NC(=O)c3ccc(C)cc3)(C(F)(F)F)N=C2c2ccccc2)cc1 (centres undefined),–,inactive,–
CCOC(=O)c1ccccc1NC(=O)CN(c1ccccc1OC)S(=O)(=O)c1ccc(C)cc1,inactive: 2.45%,–,–
COc1ccc(-c2nn(C)c3sc(C(=O)N4CCN(c5cccc(C)c5C)CC4)cc23)cc1OC,inactive: -11.3%,–,–

Structure (SMILES),"activity change, negative = inhibition",outcome,Potency
O=C(CCCn1c(=O)c2cccn2c2cccnc21)NCCc1ccc(Cl)cc1,–,inactive,–
Cc1cc(Br)ccc1NC(=O)c1cc2c(s1)-c1ccccc1SC2,–,inactive,–
O=C(/C=C/c1cn(CC(O)CN2CCCCCC2)c2ccccc12)c1ccccc1 (centres undefined),inactive: -12.1%,–,–
Cc1ccc(CNc2nc3c(S(=O)(=O)c4ccccc4)nnn3c3ccsc23)cc1,inactive: 2.58%,–,–
COc1cc(/C=C/c2nc(C#N)c(NC3CCCCC3)o2)cc(OC)c1OC,inactive: 8.11%,–,–
COc1ccc(-n2ccnc(NCCc3ccc(S(N)(=O)=O)cc3)c2=O)cc1,inactive: -0.503%,–,–
Cc1c(C(=O)N2CCC(c3nc4ccccc4s3)CC2)oc2cc(Br)ccc12,inactive: -0.126%,–,–
Cc1ccc2c(c1)c1c(c(=O)n(-c3cccc(Cl)c3)c(=O)n1CC(=O)N1CCCC1)n2C,–,inactive,–
CCOC(=O)c1cc(S(=O)(=O)Nc2ccc(Br)c(C)c2)[nH]n1,–,inactive,–
COc1cc(C2c3c(oc4cc(C)c(C)cc4c3=O)C(=O)N2CCCN2CCOCC2)ccc1O (centres undefined),–,inactive,–
COc1ccc(Br)cc1CNC(=O)c1cc2ccccn2n1,inactive: -9.88%,–,–
CCOc1cccc2cc(-c3nc4sc5c(c4c(=O)[nH]3)CCC(C(C)(C)C)C5)c(=O)oc12 (centres undefined),–,inactive,–
COc1ccc(Br)cc1CNC(=O)c1cc(=O)[nH]c2ccc(S(=O)(=O)N3CCCC3)cc12,inactive: 5.15%,–,–
CCOc1ccc(-n2c(SCc3nc(-c4ccc(OC)cc4)no3)nnc2-c2ccncc2)cc1,inactive: 8.2%,–,–
CCCNC(=O)c1cc2nc(-c3ccc(Br)cc3)cc(C(F)(F)F)n2n1,–,inactive,–
Cc1nc2ccccc2n1CCc1nc2c3ccccc3nc(SCc3cccc(F)c3)n2n1,inactive: -1.15%,–,–
O=C(COC(=O)c1cc(-c2cccs2)nc2ccccc12)c1ccc(Br)cc1,inactive: 3.13%,–,–
CCOc1ccccc1NC(=O)Cn1c(=O)n(CCC(C)C)c(=O)c2cccnc21,inactive: 7.93%,–,–
COc1ccc(CCNC(=O)CCn2c(=O)c3ccccc3n(CC(=O)Nc3ccccc3F)c2=O)cc1OC,inactive: -7.04%,–,–
CC(C)(C)c1ccc(C2Sc3ccccc3NC3=C2C(=O)c2ccccc23)cc1 (centres undefined),inactive: 0.13%,–,–
Cc1ccc2c(=O)c(C(=O)c3ccccc3)cn(CC(=O)Nc3ccc4c(c3)OCCO4)c2n1,inactive: -4.14%,–,–
O=C1CN(C(=O)Cc2ccc(F)cc2)C(c2ccccc2)c2cc(Br)ccc2N1 (centres undefined),inactive: -1.79%,–,–
Cc1ccc(NC(=O)Cn2nc(C)c3nn(-c4ccc(Cl)cc4)c(C)c3c2=O)cc1C,inactive: -5.34%,–,–
Cn1c(=O)oc2cc(S(=O)(=O)N3CCC(C(=O)NCc4ccccc4Cl)CC3)ccc21,inactive: -27.1%,–,–

Structure (SMILES),"activity change, negative = inhibition",outcome,Potency
CCOc1ccc(NC(=O)CC2C(=O)N(c3ccccc3)C(=O)N2CCc2ccc(OC)cc2)cc1 (centres undefined),inactive: -6.27%,–,–
COC(=O)c1cnn(-c2ccc(C(=O)Nc3cccc(C(C)=O)c3)cc2)c1N,inactive: -6.32%,–,–
COc1ccc(Cn2c(C(=O)O)c(CNCc3cccc(OC)c3)c3ccc(C)cc32)cc1,inactive: -7.27%,–,–
O=C1c2oc3ccccc3c(=O)c2C(c2ccc(Br)cc2)N1c1ccccn1 (centres undefined),–,inactive,–
CCCCN(CC)CCNC(=O)Cn1cnc2sc(C)c(S(=O)(=O)N3CCC(C)CC3)c2c1=O,inactive: 0.568%,–,–
CCc1nn(CC(=O)N2CCN(c3cccc(C)c3C)CC2)c(=O)c2cc3occc3n12,–,inactive,–
Cc1cccc(N2CCN(C(=O)C3CCC(CNS(=O)(=O)c4ccc(Br)s4)CC3)CC2)c1C (centres undefined),–,inactive,–
COc1ccc(N2C(=O)CSC23C(=O)N(CC(=O)NC2CCCCC2)c2ccccc23)cc1 (centres undefined),inactive: -2.3%,–,–
Cc1cccc(OCc2cc(=O)n3c(-c4ccccc4)csc3n2)c1C,–,inactive,–
CCCn1c(SCc2nc(-c3ccccc3C)no2)nnc1-c1ccc(Cl)cc1,inactive: -0.0973%,–,–
CCOC(=O)c1[nH]c(C)c(CCC(=O)Nc2c(C)cc(C)cc2C)c1C,inactive: 3.89%,–,–
CC(=O)c1ccc(N2CCN(S(=O)(=O)c3c(C)nc4sc(C)cn4c3=O)CC2)cc1,inactive: 0.613%,–,–
CCC(Oc1ccccc1)C(=O)Nc1ccc(O)c(-c2nc3cc(C)ccc3o2)c1 (centres undefined),inactive: 6.29%,–,–
CCC(C(=O)Nc1ccccc1C(=O)OC)n1c(C)c2cnn(-c3ccccc3)c(=O)c2c1C (centres undefined),–,inactive,–
O=C(CN1C(=O)CCSc2ccc(S(=O)(=O)N3CCCC3)cc21)Nc1ccccc1,–,inactive,–
CCn1cc(C(=O)NCCCOC(C)C)c(=O)c2cc(S(=O)(=O)N3CCc4ccccc4C3)ccc21,inactive: -22.7%,–,–
CCCCn1cc(S(=O)(=O)c2ccc(C)c(C)c2)c(=O)c2cc(F)c(N3CCN(C)CC3)cc21,inactive: 3.87%,–,–
NC(=O)CSc1oc(-c2ccco2)nc1S(=O)(=O)c1ccc(Br)cc1,inactive: 0.0792%,–,–
CCc1nnc(NC(=O)c2nc(S(=O)(=O)Cc3cccc(C)c3)ncc2Cl)s1,–,–,active: 12.6 µM
CCc1nn(CC(=O)NC(C)CCc2ccccc2)c(=O)c2cc3cc(F)ccc3n12 (centres undefined),inactive: 2.82%,–,–
O=C(Cn1cc(S(=O)(=O)Cc2ccccc2Cl)c2ccccc21)NCc1ccccc1Cl,inactive: 0.292%,–,–
COc1cccc(NC(=O)CCS(=O)(=O)c2ccc3c(c2)oc(=O)n3C)c1,–,inactive,–
